Data from the supplement of paper PMC8728848.
The list shows a part of the results.

Key:
Assay in all cases: glycan array binding signal (z-score within array); higher = stronger binding
Conditions in all cases: glycan notation: IUPAC condensed, linker removed
[1] = target: Gal(a1-3)Gal(b1-4)GlcNAc
Outline: (§1)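 The binding signal is a Z-score computed within each array. Data were drawn from 3228 arrays in the Consortium for Functional Glycomics database, restricted to those with a known protein sequence. Scores were averaged over arrays of the same protein sequence at different concentrations or buffers, and over linkers, and negative values can be taken as non-binding.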

[2] = target: Gal(a1-3)Gal(b1-4)GlcNAc(b1-2)Man
Outline: as §1

[3] = target: Gal(a1-3)Gal(b1-4)GlcNAc(b1-2)Man(a1-3)[Gal(a1-3)Gal(b1-4)GlcNAc(b1-2)Man(a1-6)]Man(b1-4)GlcNAc(b1-4)GlcNAc
Outline: as §1

[4] = target: Gal(a1-3)Gal(b1-4)GlcNAc(b1-3)GalNAc
Outline: as §1

[5] = target: Gal(a1-3)Gal(b1-4)GlcNAc(b1-6)GalNAc
Outline: as §1

[6] = target: Gal(a1-3)Gal(b1-4)[Fuc(a1-3)]GlcNAc
Outline: as §1

[7] = target: Gal(a1-3)Gal(b1-4)[Fuc(a1-3)]GlcNAc(b1-2)Man(a1-3)[Gal(a1-3)Gal(b1-4)[Fuc(a1-3)]GlcNAc(b1-2)Man(a1-6)]Man(b1-4)GlcNAc(b1-4)GlcNAc
Outline: as §1

[8] = target: Gal(a1-3)GalNAc
Outline: as §1

[9] = target: Gal(a1-3)[Gal(a1-4)]Gal(b1-4)GlcNAc
Outline: as §1

[10] = target: Gal(a1-4)Gal(b1-3)GlcNAc(b1-2)Man(a1-3)[Gal(a1-4)Gal(b1-3)GlcNAc(b1-2)Man(a1-6)]Man(b1-4)GlcNAc(b1-4)GlcNAc
Outline: as §1

[11] = target: Gal(a1-4)Gal(b1-4)Glc
Outline: as §1

[12] = target: Gal(a1-4)Gal(b1-4)GlcNAc
Outline: as §1

[13] = target: Gal(a1-4)Gal(b1-4)GlcNAc(b1-2)Man(a1-3)[Gal(a1-4)Gal(b1-4)GlcNAc(b1-2)Man(a1-6)]Man(b1-4)GlcNAc(b1-4)GlcNAc
Outline: as §1

[14] = target: Gal(a1-4)Gal(b1-4)GlcNAc(b1-3)Gal(b1-4)Glc
Outline: as §1

[15] = target: Gal(a1-4)GlcNAc
Outline: as §1

[16] = target: Gal(a1-6)Glc
Outline: as §1

[17] = target: Gal(b1-2)Gal
Outline: as §1

[18] = target: Gal(b1-3)Gal
Outline: as §1

[19] = target: Gal(b1-3)Gal(b1-4)GlcNAc
Outline: as §1

[20] = target: Gal(b1-3)GalNAc
Outline: as §1

[21] = target: Gal(b1-3)GalNAc(a1-3)[Fuc(a1-2)]Gal(b1-4)Glc
Outline: as §1

[22] = target: Gal(b1-3)GalNAc(a1-3)[Fuc(a1-2)]Gal(b1-4)GlcNAc
Outline: as §1

[23] = target: Gal(b1-3)GalNAc(b1-3)Gal
Outline: as §1

[24] = target: Gal(b1-3)GalNAc(b1-3)Gal(a1-4)Gal(b1-4)Glc
Outline: as §1

[25] = target: Gal(b1-3)GalNAc(b1-4)Gal(b1-4)Glc
Outline: as §1

[26] = target: Gal(b1-3)GalNAc(b1-4)[Neu5Ac(a2-3)]Gal(b1-4)Glc
Outline: as §1

[27] = target: Gal(b1-3)GlcNAc
Outline: as §1

[28] = target: Gal(b1-3)GlcNAc(a1-3)Gal(b1-4)GlcNAc
Outline: as §1

[29] = target: Gal(b1-3)GlcNAc(a1-6)Gal(b1-4)GlcNAc
Outline: as §1

[30] = target: Gal(b1-3)GlcNAc(b1-2)Man
Outline: as §1

B1: CC1G-10077 (Coprinopsis cinerea), A8NDT7 (protein)
chain: MALNEGVYWIRNSRFTNKVLDLDAANVAKGTSILDFNEHGTFNENHNQLWIVERFQSRDTYLIRSVHSNLVLDLSQGLSANGTPILCWTQHGGTNQQWRIEWVKDDNKTPLYRIVSVATGTAISHNEDDSSAYTVAWSVDDGPKQLWSFDPFVTPLLYRLRVKSTSRVLDLAAASADNGTLALAWEQHTAITKRNQLWWLPYRSGAEEYTIQCLETSTVADLSGGNSGNGTPIYGWQSHGGRNQQWKFEPTSDSGDYYHIKNVEGGSVMDAYMNDSQKRVGGWSNNGGDNQKWLLDPLPSPGPGWVLIQNGGTGKFLCSTPSGDIGTADGPETVYDYSVQWRFIQREYTGVYHVVNRATGAYLRQIGTSMPSIGLAEENDDELKDWWMLETYDNSEIGLASIISRWTGNVLDHYGGVSVQALDNNTENSYRSWAIIPARDWLTSFSLVNGQGGLCLAAQYAREETRLSTTANVNDFHAQWVFRKPSGSSGYTIQNKYNNHYVGGTSARWELVVCCNKYFGIRNTSTQKYLAIEDGQVTFQDQDMTDRKQCWELCSGRATDTSGNDYDLIYMDDDLLEVMIPWVGDKQGDLKHYIEKRATKKPPKDKGGWQLPAAGLIKKPKFNDIRQLLQELIEQWEWDVVNEEREQIQTLVSIDEAEARRLLGRRPHPDIVAAYQRSRSSTLFRIDRQGYFNIAGDRYVNIQGQYGDDSYFHIALPVGVRFGREQIRRFLRDSLDRSTSVTITPTTCKPPSGGPDYNRDPDSDGDNSWIKWTIAVVGTSAIKHSEL
[1]
  glycan array binding signal (z-score): 0.177
[2]
  glycan array binding signal (z-score): -0.237
[3]
  glycan array binding signal (z-score): 1.36
[4]
  glycan array binding signal (z-score): -0.3
[5]
  glycan array binding signal (z-score): 1.93
[6]
  glycan array binding signal (z-score): 0.744
[7]
  glycan array binding signal (z-score): 0.626
[8]
  glycan array binding signal (z-score): -0.374
[9]
  glycan array binding signal (z-score): 1.58
[10]
  glycan array binding signal (z-score): 1.57
[11]
  glycan array binding signal (z-score): 1.04
[12]
  glycan array binding signal (z-score): -0.007
[13]
  glycan array binding signal (z-score): 0.828
[14]
  glycan array binding signal (z-score): -0.131
[15]
  glycan array binding signal (z-score): -0.197
[16]
  glycan array binding signal (z-score): -0.49
[17]
  glycan array binding signal (z-score): -0.363
[18]
  glycan array binding signal (z-score): -0.345
[19]
  glycan array binding signal (z-score): 0.019
[20]
  glycan array binding signal (z-score): -0.406
[21]
  glycan array binding signal (z-score): -0.294
[22]
  glycan array binding signal (z-score): -0.27
[23]
  glycan array binding signal (z-score): -0.311
[24]
  glycan array binding signal (z-score): 0.146
[25]
  glycan array binding signal (z-score): -0.148
[26]
  glycan array binding signal (z-score): -0.33
[27]
  glycan array binding signal (z-score): -0.1
[28]
  glycan array binding signal (z-score): 0.204
[29]
  glycan array binding signal (z-score): 2.24
[30]
  glycan array binding signal (z-score): -0.106
